# The whole screen tested about 45,000 compounds, of which about 200 (0.44%) were called active. Roughly 7% stayed inconclusive and do not appear here. Calls follow the shape of the dose curve; as a rule, active = well fitted activation curve with a large enough effect; inconclusive = small, poorly fitted or top-dose-only effect; inactive = no such curve, though single readings can be large or run the other way. Some of the results follow.
# Assay: qHTS of TDP-43 Inhibitors: NCGC Sytravon Library Screen; also: nearly all actives have a fitted effect of over 55% in size; as to growth rescue (activation): 0% is about no effect
# Conditions: yeast TDP-43 toxicity rescue, BacTiter-Glo growth, 24 h; series mostly up to 46.1 µM; growth rescue (activation): at the top concentration
# Summary of the method: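 TDP-43-expressing yeast, pregrown in raffinose, seeded at OD600 0.02 in galactose medium with compound for 24 hr at 30 deg C. Growth read by BacTiter-Glo luminescence, so rescue of toxicity appears as activation.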
# Potency is read from the fitted curve at half-maximal effect.
SMILES,growth rescue (activation),Potency
CCc1nc2ccccc2c(C(=O)OCC(=O)NCc2ccc3c(c2)OCO3)c1C,inactive: 13.6%,–
Cc1ccccc1NC(=S)N1CCN(Cc2ccccc2)CC1,inactive: -8%,–
Cc1nc(CNC(=O)CC2C(=O)NCCN2Cc2ccc(F)cc2)cs1 (stereo not given),inactive: 11.2%,–
CSc1ccccc1OCc1cc(C(=O)NCCCc2ccccc2)no1,inactive: 1.38%,–
CCc1cccc2c1NC(=O)C21N2CCCC2C(C(=O)c2ccc3ccccc3c2)C12C(=O)Nc1ccccc12 (stereo not given),inactive: 1.9%,–
COc1cccc(CN2CCC(C)(Oc3cccc(Cl)c3)C2)c1OC (stereo not given),inactive: 5.43%,–
CCn1c(/C=C/N(C(C)=O)c2ccccc2)[n+](CCCS(=O)(=O)[O-])c2cc(Cl)c(Cl)cc21,inactive: 4.69%,–
Cc1ccc(OCC(=O)NNC(=O)CSc2ncc(C#N)c(N)n2)cc1,inactive: -20.8%,–
O=C(CCNC(=O)c1ccccc1Cl)NCC12CC3CC(CC(C3)C1)C2,inactive: 2.03%,–
CCCCn1c(/C=C/c2ccco2)nc2ccccc21,inactive: 4.83%,–
CCCN1C(=O)/C(=C/C=C2\N(CC)c3ccccc3C2(C)C)SC1=S,inactive: 0.16%,–
COc1cc(C2c3c(-c4cc(Cl)c(C)cc4O)n[nH]c3C(=O)N2Cc2cccnc2)ccc1O (stereo not given),inactive: 10.5%,–
CCOC(=O)c1cc(NC(=O)CN2CCCC2)cc(C(=O)OCC)c1,inactive: -1.87%,–
O=C(Nc1ccc(F)cc1)N1CCN(CCc2ccccc2)CC1,inactive: 3.86%,–
O=C(/C=C/c1ccc(OCc2ccccc2)c(OCc2ccccc2)c1)c1cccnc1,inactive: 17%,–
Cc1ccc(N(C(=O)c2ccco2)C(C(=O)NC2CCCC2)c2cccnc2)cc1 (stereo not given),inactive: 8.03%,–
COc1ccc(CC(=O)Nc2nc(-c3ccccc3)c(C(C)=O)s2)cc1OC,inactive: 7.05%,–
Cc1ccccc1C(=O)Nc1nnc(-c2ccc(C(C)(C)C)cc2)s1,inactive: 6.75%,–
CC(C)(C)C(=O)N1CCN(c2ccc(NC(=O)c3ccc([N+](=O)[O-])o3)cc2)CC1,inactive: 25.6%,–
Cc1ccc(C(C(=O)NCC2CCCO2)N(C(=O)c2snc(C(N)=O)c2N)c2ccccc2)o1 (stereo not given),inactive: 14.8%,–
O=C(NCc1ccc(Cl)cc1)c1cc2ccccc2o1,inactive: 12.7%,–
CC1(c2ccc3c(c2)OCCO3)NC(=O)N(CC(=O)Nc2ccccc2F)C1=O (stereo not given),inactive: -21.3%,–
Cn1nnnc1N=N/C(=N/Nc1ccccc1)c1ccccc1,–,active: 6.31 µM
CCN(CC)C(=O)Cn1c(=O)n(CCCCCC(=O)NCc2ccccc2Cl)c(=O)c2sccc21,inactive: -3.46%,–
O=C(Nc1ccc(N2CCOCC2)cc1)c1csc(COCCO)n1,inactive: 7.94%,–
Cc1cc(O)cc2c1C(=O)/C(=C/c1ccco1)O2,inactive: 30.5%,–
CCc1sc(C(=O)Nc2ccc3c(c2)OCO3)cc1C,inactive: 16.8%,–

SMILES,growth rescue (activation),Potency
CC(C)N(Cc1cc2ccccc2[nH]c1=O)C(=O)c1ccco1,inactive: 9.44%,–
CCCCOc1ccc(C(=O)OCC(=O)N2CCCCCC2)cc1,inactive: 26.2%,–
COCC1CCN(Cc2cn(-c3ccccc3F)nc2-c2cc(C)sc2C)CC1,inactive: -12%,–
CC1(C2CC2)NC(=O)N(CC(=O)N2CCN(c3cccc(C(F)(F)F)c3)CC2)C1=O (stereo not given),inactive: 2.76%,–
COc1ccc(C(=O)Nc2cc(C(F)(F)F)ccc2-n2cncn2)cc1,inactive: 16.5%,–
CCCCCC(=O)N1CCN(CCN=CC2=C(O)CC(c3ccc(OC)c(OC)c3)CC2=O)CC1 (stereo not given),inactive: 17.6%,–
COC(=O)c1ccccc1NC(=O)N1c2ccccc2Sc2ccccc21,inactive: 13.2%,–
CC(C)OC(=O)c1cccc(C(=O)OCc2ccco2)n1,inactive: 8.15%,–
CCOC(=O)Cc1csc(NC(=O)Cc2ccccc2[N+](=O)[O-])n1,inactive: 9.83%,–
CCC(C)N(C(=O)COC(=O)C1C(C(=O)OC)=C(C)NC(C)=C1C(=O)OC)C1CCS(=O)(=O)C1 (stereo not given),inactive: 4.22%,–
Cc1ccc(OCC(=O)N2C(C)CCCC2C)c([N+](=O)[O-])n1 (stereo not given),inactive: 27.2%,–
Cc1ccc(NC(=O)C2(S(=O)(=O)c3ccc(Cl)cc3)CC2)c(Br)c1,inactive: -5.16%,–
CN1c2ccccc2Oc2nnc(N3CCN(Cc4ccccc4)CC3)cc21,inactive: -2.48%,–
CC(C)Nc1ncnc2c1ncn2[C@H]1CN(Cc2ccco2)C[C@@H](CO)O1,inactive: 4.91%,–
COc1ccc2c(-c3ccccc3)cc(SCC(=O)NC(N)=O)nc2c1,inactive: 7.07%,–
Cc1ccc(S(=O)(=O)N(C)C)cc1NC(=S)Nc1ccc2[nH]c(=O)[nH]c2c1,inactive: -20.2%,–
COc1ccc(/C=C/C(=O)OCc2csc(-c3ccccc3)n2)cc1OC,inactive: 15.7%,–
Cc1ccc(S(=O)(=O)N(C)c2cc(S(N)(=O)=O)c(C)cc2C)cc1,inactive: 5.17%,–
CCc1ccc(NC(=O)CN2C(=O)C(c3ccccc3)=NC23CCCCCC3)cc1,inactive: 22.3%,–
COc1ccc(-c2noc(CNC(=O)c3ccoc3C)n2)cc1,inactive: 8.46%,–
CCN(CC(=O)Nc1ccc(NC(C)=O)cc1)C(=O)Cc1ccccc1F,inactive: -13.7%,–
COC(=O)CCCC(=O)NC(C)c1cnn(-c2ccccc2C)c1C (stereo not given),inactive: -0.763%,–
O=C(CCC(=O)Nc1ccc(F)cc1)N/N=C/c1ccc(O)cc1O,inactive: -3.75%,–
Cn1c(CN2CCCCC2)nc2cc(NS(=O)(=O)c3ccc(F)cc3)ccc21,inactive: 0.339%,–
Cc1ccc(C(O)c2ncc(-c3cccc(C(F)(F)F)c3)[nH]2)c(C)c1 (stereo not given),inactive: 12.6%,–
Cc1ccc(NC(=O)C2CCCN(c3nnc(-n4c(C)ccc4C)s3)C2)cc1Cl (stereo not given),inactive: 4.75%,–
O=C(NCc1ccccc1)C(c1ccncc1)N(C(=O)c1ccccn1)c1ccccc1 (stereo not given),inactive: 4.19%,–

SMILES,growth rescue (activation),Potency
CC(=O)c1ccc(OCCCC(=O)NC2CCC(C)CC2)cc1 (stereo not given),inactive: 15%,–
CCn1cc(C(=O)O)c(=O)c2cc(F)c(N3CCN(C(=S)NC(=O)c4c(OC)cccc4OC)CC3)cc21,inactive: -6.12%,–
Cc1cnc(CNC(=O)c2csc([C@H]3C[C@H](O)[C@@H](CO)O3)n2)cn1,inactive: 14.4%,–
O=C(CCc1ccccc1)Nc1cc(NC(=O)CCc2ccccc2)cc(C(=O)O)c1,inactive: 5.23%,–
O=C(c1ccco1)N1CCN(CCCCOc2cccc3ccccc23)CC1,inactive: 6.78%,–
Cc1nn(-c2ccccc2)c(N2CCCC2)c1/C=N/NC(=S)Nc1ccccc1F,inactive: 3.1%,–
Cn1cc(-c2csc(C(C)(O)c3cccnc3)n2)cn1 (stereo not given),inactive: 14.1%,–
COc1ccccc1OCC(O)Cn1nc(C)cc1C (stereo not given),inactive: 1.51%,–
Cc1c(CCC(=O)O)c(=O)oc2cc3occ(C(C)(C)C)c3cc12,inactive: -12.5%,–
Cc1ccc(C(=O)N/C(=C\c2sccc2C)C(=O)NCc2ccco2)cc1,inactive: 12%,–
O=C(O)c1ccc(/C=C2\CCCc3c2nc2ccccc2c3C(=O)O)cc1,inactive: 0.849%,–
CCc1ccc(N(C(=O)c2snc(C(N)=O)c2N)C(C(=O)NCC2CCCO2)c2cccs2)cc1 (stereo not given),inactive: 10.1%,–
CCN(CC)C(=O)CSc1nc(O)c(Cc2ccccc2)c(=O)n1-c1ccccc1C,inactive: 4.18%,–
COc1ccc(C(CC(=O)O)N2C(=O)CCC2=O)cc1 (stereo not given),inactive: -2.92%,–
CCc1nc2ccc(C(=O)NCc3ccccc3)cc2nc1CC,inactive: 18.7%,–
CCc1nc2ccc(C(=O)NCCN3CCOCC3)cn2c1N(C=O)Cc1ccc(OC)cc1,inactive: -10.5%,–
O=C(Cc1csc2ccccc12)NCc1ccccc1F,inactive: 13.6%,–
CS(=O)(=O)c1ccc(C(=O)N2CC(=O)Nc3ccccc32)cc1,inactive: 0.0667%,–
CCCCn1c(=NC(C)=O)c(C#N)cc2c(=O)n3cccc(C)c3nc21,inactive: -31.3%,–
Cc1c(OCC(=O)NC(Cc2c[nH]c3ccc(O)cc23)C(=O)O)ccc2c3c(c(=O)oc12)CCC3 (stereo not given),inactive: 12.5%,–
COCCn1c(NCc2ccco2)nc2c1c(=O)[nH]c(=O)n2C,inactive: -0.989%,–
Cc1ncc(CO)c(/C=N/NC(=O)c2cc(Br)ccc2O)c1O,inactive: 3.39%,–
Cc1nc(SCC(=O)c2cc3ccccc3oc2=O)c(C#N)c(-c2cccs2)c1C(=O)Nc1ccccc1,inactive: -1.68%,–
CCC(CNC(=O)c1c(C)nn(-c2ccccc2)c1Cl)c1ccccc1 (stereo not given),inactive: -5.69%,–
Cn1c(C(=O)O)c(CC(=O)Nc2ccc(F)cc2F)c2ccccc21,inactive: 16.9%,–
Cc1cc(N/N=C\c2ccc(Br)cc2)nc(-n2nc(C)cc2C)n1,inactive: 4.8%,–
CCCC1NC(=S)NC(C)=C1C(C)=O (stereo not given),inactive: -9.16%,–

SMILES,growth rescue (activation),Potency
Cc1cc2oc(=O)c(CC(=O)O)c(C)c2c2occ(C(C)(C)C)c12,inactive: -6.75%,–
C=CCNC(=O)NC(=O)COC(=O)CC(NC(N)=O)c1ccc(Cl)cc1 (stereo not given),inactive: 6.76%,–
CC(C)(O)C#Cc1ccc(CN2CCN(C3CCCCC3)C(CCO)C2)s1 (stereo not given),inactive: -2.25%,–
O=C(NN1C(=O)C2C(C1=O)C1C=CC2C12CC2)c1ccccc1Cl (stereo not given),inactive: -0.211%,–
CC(=O)c1ccc(N(CC(=O)NCCc2ccccc2)C(=O)c2csnn2)cc1,inactive: 11.2%,–
O=C(/C=C/c1c(Cl)nc2ccccn12)N1CCN(c2ccccc2F)CC1,inactive: 24.2%,–
O=C(NC1CCCC1)C(=O)N(Cc1cccnc1)C(C(=O)NCc1ccco1)c1ccccc1F (stereo not given),inactive: -14.2%,–
CC(C1CC1)N(C(=O)NC1CCS(=O)(=O)C1)c1ccccc1 (stereo not given),inactive: 15.4%,–
N#Cc1ccc(C(=O)OCC(=O)N2CCN(C(=O)c3ccco3)CC2)cc1,inactive: -1.22%,–
COC(=O)c1c(C)[nH]c(-c2csc(N)n2)c1C,inactive: 10.3%,–
Cc1cc(NC(=O)CSc2nc3ccccc3c(=O)n2-c2ccccc2)no1,inactive: 20.2%,–
CCOc1ccccc1N1CCN(C(=S)NCc2ccccc2)CC1,inactive: 23.9%,–
CN(C)CCCNc1ncnc2c1cnn2Cc1ccccc1Cl,inactive: 9.99%,–
O=C(Nc1ccc(CN2CCCCC2)cc1)c1sc2ccccc2c1Cl,inactive: -6.16%,–
COc1cc(NC(=S)N2CCC(C(N)=O)CC2)cc(OC)c1,inactive: 9.09%,–
O=C(NCCCc1nc2ccccc2n1Cc1ccc(Cl)cc1)c1ccco1,inactive: 4.2%,–
CCc1cccc(CC)c1NC(=S)Nc1ccccc1,inactive: 14.9%,–
CCc1cccc(C)c1NC(=O)CSc1nnc(N)s1,inactive: 9.53%,–
C=CCN=C1S/C(=C\c2ccc(N(C)C)cc2)C(=O)N1CC=C,inactive: 6.48%,–
COCCNc1nc(NCc2ccccc2)nc2ccsc12,inactive: 14.5%,–
O=C(O)c1cccc(N2C(=O)c3ccc(C(=O)c4cccc([N+](=O)[O-])c4)cc3C2=O)c1,inactive: 9.27%,–
CO/N=C/c1cccn1-c1nccc(OC)c1C#N,inactive: -16.3%,–
COc1ccc(-c2nc(-c3ccccn3)nc(N3CCN(C)CC3)c2C#N)cc1,inactive: -4.62%,–
COc1ccc(S(=O)(=O)Cc2ccc(C(=O)NCCc3cc(OC)ccc3OC)o2)cc1,inactive: 4.87%,–
